From the supplement of paper PMC11417369
This is one part of the list.

These sequences were tested on PfHDP1 homeodomain (GST-tagged) (assay: gcPBM binding intensity (ln(normalized median fluorescence intensity)); higher = stronger DNA binding).
Outline: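 Each value is the highest Masliner-normalised natural-log median intensity across replicate spots of either orientation of a probe. The probes were primer-extended double-stranded 36-bp intergenic genomic sequences on an Agilent 4 × 180k array, alongside negative controls, exposed for 1 h to GST-tagged P. falciparum DNA-binding domains expressed in E. coli. Bound protein was picked up with Alexa488 anti-GST antibody and scanned at 488 nm.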

| Sequence | gcPBM binding intensity (ln) |
| --- | --- |
| ATATATGTGCCCATATATATATATATAAATATATGT [GTGCAC_negctrl_site226] | 6.63 |
| ATATTATAATATTTATGTACATATATATAATATATA [XGTACX_site1633] | 6.35 |
| TATTAGCATGTTATTACACACAATATAAGATATATA [CACACA_site6775] | 6.61 |
| AATATATATTTATAAACACACACCAAAATTTGTGCT [CACACA_site3091] | 6.82 |
| ACATTTTGTGTTTTAGCACACAATTTTTCAGAATAT [CACACA_site2961] | 6.73 |
| ATAGCTAAGATAGCTTGTACATATATTTACATATAT [XGTACX_site3694] | 5.8 |
| TATAAAATAAAAATTATATATTTTAAATGGATACAA [TGCATGCA_negctrl_site284] | 6.46 |
| AAAACAAATTAAAATCGTACAATTATAATGTTAATG [XGTACX_site180] | 6.4 |
| ATTTAAATGAAAAAATGTACAAAAAGATTTAAACTC [XGTACX_site1489] | 6.84 |
| ATGCACATTTATAAAAGTACATGTATGTAATATGTT [XGTACX_site830] | 6.84 |
| ATATGTAGTTTTTACCTAATAAAAAAAAAAAAAAAA [CACACA_negctrl_site672] | 6.18 |
| TAAACATATAAAAAGGGTACACATTAAACATAGTAT [XGTACX_site7096] | 6.38 |
| AAATCATTCCTTTATTCACACAATATCTGTATTTAT [CACACA_site4407] | 6.59 |
| TCATAAATGAAACACACACACACATCTGGATACCCC [CACACA_site3332] | 7.04 |
| ATTATATATATAAAGTGTACAAAAAAAAAAAAAAAA [XGTACX_site3134] | 6.61 |
| TATAATAAATCATATGCATGTTGAAAAAAAAAAAAA [TGCATGCA_site923] | 6.46 |
| ATTTGAGAGTTAACAAAATATTTGGCCATCTTTTAT [XGTACX_negctrl_site447] | 6.05 |
| AATGTCCTTATTTGCACACACACATATAAGAAATTT [CACACA_site3186] | 10.6 |
| AACTCATAGCGGTGTGCACACAAAAAATTAAAAAAA [CACACA_site3033] | 11 |
| ATTGTCCTAAATACTACAAAGTAGATCTTTAATATT [CACACA_negctrl_site1795] | 6.25 |
| GAGATGACATTACACAGTACCCAGGAAATCTACGGA [XGTACX_site4931] | 6.06 |
| TATATATTGTTATATACACACATGTATATAAAAAAT [CACACA_site3221] | 6.48 |

| Sequence | gcPBM binding intensity (ln) |
| --- | --- |
| CAAAAAAGGTCCCGGAGTACATATATAATTTTTTTT [XGTACX_site458] | 6.79 |
| TTATAATTAAGATATAATCAATAATAACAAATGAAC [CACACA_negctrl_site1690] | 6.91 |
| TTTCTTTTTCTAGTTATTTTTACTTATCCCTAATTT [TGCATGCA_negctrl_site460] | 6.66 |
| TTCTTTGCTTCTGTTTCACACATTTTTAAAATAAGC [CACACA_site4741] | 7.58 |
| TTAAGCCGCAATATGGGTACATAGGAAGAAGGGGAA [XGTACX_site8397] | 6.14 |
| ATATATAAAAATATTTGTACATATAGTTATATTTAT [XGTACX_site6114] | 6.35 |
| TTAAAGGGAATGTATACACACGTTTCTCTATGTTAT [CACACA_site4793] | 6.33 |
| TAATTCCATAAGTAAACACACAAATGCCAAAATTTT [CACACA_site3205] | 6.46 |
| GTGCGTGCGTGTACTTAACACACATAATATGTATTT [CACACA_site8336] | 6.89 |
| TCCATATGCAAACTGGTGCACAAGTAGCTTTTATAT | 10.8 |
| ACATATATGGAGCTTATACACACTTTTATATTTTAA [CACACA_site3854] | 6.75 |
| TTTTAAATATGCCATACACACTACTCTATAATAAAT [CACACA_site6987] | 6.56 |
| TTATCATATAATTATTGTACTAAAAAAAAAGCGAGT [XGTACX_site3086] | 6.94 |
| TTATAATAAATATATAAAAAAAAAAAAAAAAAAAAA [CACACA_negctrl_site1639] | 6.29 |
| ATATATTATGGGTGTGCACACAATATTTATATGTTC [CACACA_site2270] | 10.9 |
| TTTTCTTATAAATGAAGTACAAAAAAAAAATATATA [XGTACX_site1352] | 6.55 |
| TGATAGCACCTTATATGTACATATAATATATTATTA [XGTACX_site837] | 6.97 |
| TTATGTGTATAGGTTTGTACATAAAATGATGTATAG [XGTACX_site1401] | 6.52 |
| TAGTCATATATATATGTACACACATATATATATTTA [CACACA_site8413] | 6.32 |
| TCATGGAATATTTAAAGTACAAAAAGTGTTCTTTAC [XGTACX_site715] | 5.83 |
| TATATATATATGTGTACACATGTCGCATTTTTTTAT [CACACA_site4648] | 9.06 |
| GATATTATAAAATAAAAATAAATCATTTCTATTCAT [CACACA_negctrl_site334] | 5.78 |

| Sequence | gcPBM binding intensity (ln) |
| --- | --- |
| GTGTCTTTTATTAAATGTACATATTCATAGATAAAA [XGTACX_site8578] | 6.56 |
| AATTGAGAAGTGTGTTGTACATAATGGCACATACCT [XGTACX_site1370] | 6.5 |
| ACGTAAACATGTAGAAGGCATTACACAATGGTATAC [TGCATGCA_negctrl_site512] | 6.47 |
| ACCTTAAAAATAACTGCACACAAAAATAAATACCTT [CACACA_site8902] | 8.72 |
| TAGAATGAAAAAAAAGCATGCGGGCAAAAATTTTTA [TGCATGCA_site926] | 6.96 |
| TTATTTTTTTGGAATTCACACACAAAAAAAAAAATA [CACACA_site8650] | 6.33 |
| ATATATATATATATATGTACATATATATATTATATT [XGTACX_site6303] | 9.38 |
| TTATGGTGCATGAAATCACACATTGATATATATGCT [CACACA_site5352] | 8.81 |
| AAGGTATAATATATTTGTACATATACATTTTTGAAT [XGTACX_site6493] | 6.46 |
| GATTTTAATGGGTGTACACATTTATTTATATAAAGT [CACACA_site5317] | 6.66 |
| TGAAAAATGTAATGCTCACACATATATATATATATA [CACACA_site5213] | 9.47 |
| ATGTGTATATATATGTGTACATAATTTGTGTTATTC [XGTACX_site2509] | 6.94 |
| TATCCCCTTGTCCATATTAATTGTGACATCATATAT [XGTACX_negctrl_site9] | 7.25 |
| TATTTTTTATTTTAAATCCTCTGATATTTAATTTGT [TGCATGCA_negctrl_site84] | 6.21 |
| ATTTATGTTAATAAGTGTACAATAAATTTTTTTTAT [XGTACX_site7658] | 6.14 |
| AACATATATAAATACACACACATATATATATGAAAT [CACACA_site4312] | 6.77 |
| TATTAATTTAAATGGGTGCAAAACCTATATAAATAT | 9.35 |
| AAAATGTCCCGTAGAAAATAAATTTATTACGCAATA [CACACA_negctrl_site1564] | 6.5 |
| TAGGTGCCTTTTTTCACACACATGTCAACTAAATAT [CACACA_site2656] | 6.9 |
| ATATTTAGGAAAAATAGTACACATTTAAATAATAAT [XGTACX_site7989] | 6.67 |
| CTTTAAATTAATAAAAGTACATTATTTATATATTTT [XGTACX_site4808] | 6.17 |
| AAATATATATATATATATATAAATATATACATATAT [TGCATGCA_negctrl_site517] | 6.5 |

| Sequence | gcPBM binding intensity (ln) |
| --- | --- |
| ATATTTTATTTTAATACACACAAGTTATATAACCAC [CACACA_site6508] | 6.88 |
| TACATATATATATATGTACACACATTAATAAAAAAA [CACACA_site9058] | 6.75 |
| ATAACAAAAAAAAAGGTGCTACAAAATGAATAAAAA [GTGCAC_site9659] | 6.59 |
| AATATAAATAATTATACACACTTAATATATATATAC [CACACA_site5533] | 6.53 |
| GTTTGAATGGCGCACTGTACACATATATACATATAG [XGTACX_site8619] | 7.36 |
| ACAAAATTATGTAGATGTACAGACATAGAAAGAGAT [XGTACX_site3096] | 7.11 |
| ATTTATGAAAAATGTACACACATCAAATGCTTATAT [CACACA_site4068] | 6.78 |
| TTATGGTGCAACATTATGCACACCGTTAAATAACTA [CACACA_site3846] | 11.4 |
| ATTTATTTTGTTGTTGTTTTTATTTGATTGTTTTAT [CACACA_negctrl_site1275] | 6.89 |
| TTATTTTATTTTTGTGCACACTGATAAATTGAAAAG [CACACA_site2949] | 11.2 |
| CGTTTTCTATATCATTGTACATATTCATGTGTAAAT [XGTACX_site2741] | 6.41 |
| AACAGACGAAGACACACACACATATATATATATATA [CACACA_site1020] | 9.28 |
| TAAAAGTTCACCTGTACACACATATAAATATGTACA [CACACA_site6901] | 6.44 |
| ATTAATAAATTCAATTGTACTTGTTTATACATAAAA [XGTACX_site3733] | 6.53 |
| AAAATTAACCGTAACACACACACATATAAATATGTA [CACACA_site7791] | 6.55 |
| TTGTTTAAGTCACGAACACACATATATCATCAATTT [CACACA_site986] | 6.52 |
| CAATAAAGAGGGAATTGTACTTTAAATATCCCTCTT [XGTACX_site1991] | 5.89 |
| AAAATAAAATAAAATACACACATACATACATACAAA [CACACA_site5366] | 6.89 |
| ATATATCACAATAAAATTTATAGAATTTTAAATAAG [TGCATGCA_negctrl_site437] | 6.23 |
| AATATATTTCGAGATACACACATATATAAAAAAAAA [CACACA_site3398] | 6.67 |
| AAAAAAAAAAAAAAGACACACAATGTGAAATAATAA [CACACA_site804] | 6.32 |
| AATAGAACAAATAAAACACACACATATATATATATA [CACACA_site8893] | 9.36 |
